Hit rate of the full screen: of about 48,000 compounds, about 450 (0.94%) were called active. About 19% were inconclusive and are not listed. Calls follow the shape of the dose curve; as a rule, active = well fitted inhibition curve with a large enough effect; inconclusive = small, poorly fitted or top-dose-only effect; inactive = no such curve, though single readings can be large or run the other way. The list shows a part of the results.
Test: Primary qHTS for Identification of Small Molecule Inhibitors of Huntingtin Promoter Activity; also: nearly all actives have a fitted effect of over 50% in size
Conditions: HEK293 HTT promoter firefly luciferase reporter (activity 0% = vehicle and -100% = no light), 24 h; activity change, negative = inhibition: at the top concentration
How it was run: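 HEK293 Fluc reporter, 2,500 cells/well, 24 h pre-culture; cpds up to 57.5 uM final, 24 h 37 degrees C; Dual-Glo, 10 min RT; normalized vehicle = 0%, zero RLU = -100%.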
Potency is read from the fitted curve at half-maximal effect.

Row | Structure (SMILES) | activity change, negative = inhibition | Potency
1 | CCc1ccc(C2CCNCC2)cc1 | inactive: -6.01% | 
2 | Clc1ccccc1C(c1ccccc1)(c1ccccc1)n1cccn1 | inactive: -0.543% | 
3 | CCO/N=C(\CC)C1=C(O)CC(c2c(C)cc(C)cc2C)CC1=O (stereo not given) | inactive: -3.45% [at 116 µM] | 
4 | Clc1ccc(C(OCCN2CCCCC2)c2ccccc2)cc1 (stereo not given) | inactive: -6.57% | 
5 | CCCSP(=O)(OCC)SCCC | inactive: 7.16% [at 116 µM] | 
6 | CCOCCOC(C)=O | inactive: 10.9% [at 116 µM] | 
7 | CC[N+](CC)(CC)CC | inactive: 5% | 
8 | COc1cc2[nH]c(=O)n(-c3ccc(C)cc3)c(=O)c2cc1OC | inactive: 5.21% | 
9 | CCC(COC(=O)c1cc(OC)c(OC)c(OC)c1)(c1ccccc1)N(C)C (stereo not given) | inactive: 4.71% | 
10 | CCN(C(C)=O)c1cccc(-c2ccnc3c(C#N)cnn23)c1 | inactive: 3.35% | 
11 | O=C(Nc1ccc(Br)cc1C(=O)c1ccccc1Cl)c1ccc(Br)cc1 | inactive: -11.6% [at 11.5 µM] | 
12 | COc1ccccc1-c1nn2c(=O)cc(CN3CCN(C(=O)COc4ccccc4Cl)CC3)nc2s1 | inactive: -20.4% | 
13 | CN(C)NC(=O)CCC(=O)O | inactive: -9.37% | 
14 | O=[N+]([O-])c1ccc([As](=O)(O)O)cc1 | inactive: 3.04% | 
15 | O=C1c2ccccc2C(=O)c2ccccc21 | inactive: -2.56% [at 25.2 µM] | 
16 | Cc1ccc2c(=O)n(-c3cccc(Cl)c3)c(=O)[nH]c2c1 | inactive: -0.185% | 
17 | Cc1ccc2nc(NC(=O)c3cccn(Cc4ccccc4F)c3=O)sc2c1 | inactive: 4.18% | 
18 | C1CCC(NC2CCCCC2)CC1 | inactive: -1.25% | 
19 | CCC1(c2cccc(O)c2)CCCCN(C)C1 (stereo not given) | inactive: -6.86% | 
20 | C[C@@H]1CC[C@H]2[C@@H](C)C(=O)O[C@@H]3O[C@@]4(C)CC[C@@H]1[C@]32OO4 | inactive: -10.7% | 
21 | CC(=O)OCC1=C(C(=O)O)N2C(=O)[C@@H](N)[C@@H]2SC1 | inactive: -14% | 
22 | O=c1c2ccccc2nc(/C=C/c2cccc3ccccc23)n1-c1ccc(Cl)cc1 | inactive: -27.3% | 
23 | CCC12CN3CC(CC)(CN(C1)C3c1c(C)[nH]c(=O)[nH]c1=O)C2=O (stereo not given) | inactive: -9.9% | 
24 | CC(C)Oc1cccc(NC(=O)c2ccccc2C(F)(F)F)c1 | inactive: -21.2% [at 116 µM] | 
25 | COc1cc(C[C@@H](C)N)c(OC)cc1Br | inactive: -0.042% [at 116 µM] | 

Row | Structure (SMILES) | activity change, negative = inhibition | Potency
26 | COc1cc(OC)cc(C(=O)Nc2ccc(Cl)cc2C(=O)c2ccccc2Cl)c1 | inactive: -0.568% | 
27 | CC(C)(C)NCC(O)c1ccccc1Cl (stereo not given) | inactive: 4.71% | 
28 | Oc1ccc([C@H]2CNCc3c2ccc(O)c3O)cc1O | inactive: 0.341% | 
29 | Cc1ccc(OCC(=O)N2CCN(Cc3ccc(F)cc3)CC2)cc1 | inactive: -26% | 
30 | CC(C)C[C@H](CN)CC(=O)O | inactive: -7.34% | 
31 | CN(C)C(=S)SSC(=S)N(C)C | inactive: -28.3% | 
32 | c1cnc2c(c1)ncn2C1CCNCC1 | inactive: 0% | 
33 | COc1cccc(-n2c(/C=C\c3ccc(Cl)cc3)nc3ccccc3c2=O)c1 | inactive: -2.02% | 
34 | Cc1ccc(C(C)(C)C)c(OCC(=O)Nc2ccc(Cl)cc2C(=O)c2ccccc2)c1 | inactive: 5.65% | 
35 | COc1ccc2c(c1)[C@]13CCCCC1C(C2)N(C)CC3 (stereo not given in full) | inactive: 10.6% | 
36 | Sc1ccccc1Cl | inactive: -1.64% | 
37 | COc1ccc2c(c1)CN(C)CC2c1ccc(Cl)c(Cl)c1 (stereo not given) | inactive: -5.77% | 
38 | C#C[C@]1(O)C=C[C@H]2[C@@H]3CCC4=CC(=O)CC[C@@H]4[C@H]3CC[C@@]21CC | inactive: -4.71% | 
39 | Cc1cc(C)cc(NC(=O)CN2C(=O)CN=C(c3ccccc3)c3cc(Cl)ccc32)c1 | inactive: -12.2% | 
40 | O=C(COc1ccc(Br)cc1)Nc1ccc(Cl)cc1C(=O)c1ccccc1 | inactive: 3.1% | 
41 | CN1C(=O)NC(=O)C(C)(C2=CCCCC2)C1=O (stereo not given) | inactive: -3.17% | 
42 | CN1C(=O)CN=C(c2ccccc2)c2cc([N+](=O)[O-])ccc21 | inactive: 1.1% | 
43 | Cc1ccc(-n2c(/C=C\c3ccc(F)c(F)c3)nc3ccccc3c2=O)c(C)c1 |  | active: 7.08 µM
44 | O=[N+]([O-])/N=C1\NCCN1Cc1ccc(Cl)nc1 | inactive: 5.95% | 
45 | CC(=O)OCC1=C(C(=O)O)N2C(=O)[C@@H](N)[C@H]2SC1 | inactive: -6.52% [at 25.2 µM] | 
46 | COC(=O)c1cncn1C(C)c1ccccc1 (stereo not given) | inactive: -4.19% | 
47 | C[C@H]1C(=O)O[C@@H]2CCN3CC=C(COC(=O)[C@](C)(O)[C@]1(C)O)[C@H]23 | inactive: -1.21% | 
48 | Cc1cccc(OCC(=O)N2CCN(Cc3cc(=O)n4nc(-c5ccccc5Cl)sc4n3)CC2)c1 | inactive: -9.15% | 
49 | COc1ccc(C)cc1NC(=O)c1cccn(Cc2cccc([N+](=O)[O-])c2)c1=O | inactive: 43.9% | 
50 | CC(C)(N)Cc1ccc(Cl)cc1 | inactive: 11.8% | 

Row | Structure (SMILES) | activity change, negative = inhibition | Potency
51 | Cc1ccc(-n2c(/C=C/c3cccs3)nc3ccccc3c2=O)cc1C | inactive: -35.8% | 
52 | COCCOCCO | inactive: -2.64% [at 116 µM] | 
53 | COc1ccc(CN2CCNCC2)c(OC)c1OC | inactive: 1.77% | 
54 | C[C@]12C=CC(=O)C=C1CC[C@@H]1[C@@H]2CC[C@@]2(C)[C@H]1CC[C@]2(C)O | inactive: -21.6% | 
55 | C[C@]12CC[C@H]3[C@@H](CCC4=CC(=O)CC[C@@H]43)[C@@H]1CC[C@@H]2O | inactive: 2.82% | 
56 | CCCC12CN3CC(CCC)(CN(C1)C3c1ccccn1)C2=O (stereo not given) | inactive: -13.6% | 
57 | O=C(N[C@H]1CN2CCC1CC2)c1ccc(Cl)cc1 | inactive: 228% | 
58 | C#CC1(O)CCC2C3CCC4=CC(=O)CCC4(C)C3CCC21C (stereo not given) | inactive: -10.8% | 
59 | O=C1OC(CCN2CCCCC2)OC1(c1ccccc1)c1ccccc1 (stereo not given) | inactive: 8.19% | 
60 | CCOc1ccc2nc(NC(=O)c3cccn(Cc4ccc(Cl)cc4)c3=O)sc2c1 | inactive: -28.3% | 
61 | Cc1cc(O)ccc1Cl | inactive: 9.46% | 
62 | CCCC(C)C1(CC)C(=O)N=C(S)NC1=O (stereo not given) | inactive: -5.98% | 
63 | CCc1ccccc1NC(=O)c1cccn(Cc2ccccc2F)c1=O | inactive: -4.48% | 
64 | CCOc1ccc2nc(NC(=O)c3cccn(Cc4ccccc4)c3=O)sc2c1 | inactive: -5.63% | 
65 | C=C(C)[C@H]1CN[C@H](C(=O)O)[C@H]1CC(=O)O | inactive: -0.262% | 
66 | NC1CC1c1ccccc1 (stereo not given) | inactive: 2.16% | 
67 | O=C(Nc1ccc(Cl)cc1C(=O)c1ccccc1)c1cc(Cl)cc(Cl)c1 | inactive: -2.26% | 
68 | Cn1cc(/C=C/c2nc3ccccc3c(=O)n2-c2ccccc2)c2ccccc21 | inactive: -6.04% | 
69 | Cc1ccc(-c2nc3ccc(C)cn3c2CC(=O)N(C)C)cc1 | inactive: 3.67% | 
70 | O=C(Nc1ccc2c(c1)OCO2)c1cccn(Cc2cccc(F)c2)c1=O | inactive: 0% | 
71 | Nc1nc(N)nc(NC2CC2)n1 | inactive: -0.161% | 
72 | CN(C)CCN(C)CCc1ccc(Cl)c(Cl)c1 | inactive: -12.4% | 
73 | COc1ccccc1NC(=O)N(Cc1ccc2c(c1)OCO2)C1CCN(Cc2ccccc2)CC1 | inactive: -21.6% | 
74 | COc1cc(C(c2c(O)c3ccccc3oc2=O)c2c(C)n(C)n(-c3ccccc3)c2=O)ccc1OCC(=O)O (stereo not given) | inactive: 5.84% | 
75 | O=C(Nc1ccc(Cl)cc1C(=O)c1ccccc1)c1ccccc1Br | inactive: -12.1% | 

Reference: PubChem BioAssay AID1508623 (National Center for Advancing Translational Sciences (NCATS), 2021)
